The structures appear in SMILES notation. The campaign covered roughly 48,000 compounds. About 550 (1.1%) were called active. About 4% were inconclusive and are not listed. Rule as the data show it: active = potency below about 15 µM; inconclusive = mostly about 16 µM to 33 µM; inactive = weaker than that. This is one part of the list.
Potency is read from the fitted curve at half-maximal effect.

Sequence of UniProt P04062 (P04062 whole entry, looked up): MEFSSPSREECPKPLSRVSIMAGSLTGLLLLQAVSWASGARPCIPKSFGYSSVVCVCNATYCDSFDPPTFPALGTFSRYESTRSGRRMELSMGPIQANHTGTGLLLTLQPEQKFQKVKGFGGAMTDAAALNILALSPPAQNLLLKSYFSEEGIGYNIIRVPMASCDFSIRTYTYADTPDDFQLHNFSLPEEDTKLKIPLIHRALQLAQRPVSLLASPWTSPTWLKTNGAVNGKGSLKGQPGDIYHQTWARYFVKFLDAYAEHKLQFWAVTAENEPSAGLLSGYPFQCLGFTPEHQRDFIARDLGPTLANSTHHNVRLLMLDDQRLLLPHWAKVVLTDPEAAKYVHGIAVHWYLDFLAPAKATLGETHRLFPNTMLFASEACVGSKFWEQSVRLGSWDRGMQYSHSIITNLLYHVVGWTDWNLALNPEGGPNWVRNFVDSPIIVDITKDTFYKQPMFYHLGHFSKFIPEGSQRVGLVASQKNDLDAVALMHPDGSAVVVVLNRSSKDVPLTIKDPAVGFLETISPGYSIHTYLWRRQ

The assay concerns the target Lysosomal acid glucosylceramidase (Homo sapiens) (UniProt P04062). Nature of the assay: Glucocerebrosidase.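 Also: the screen sought inhibitors.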 The settings on record: purified enzyme, resorufin glucoside fluorescence (screen aimed at inhibitors), 20 min. A digest of the protocol:
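Wild-type enzyme at 0.2 nM final in 50mM citric acid/KH2PO4, 10mM sodium taurocholate, 0.01% tween-20, pH 5.9, with resorufin beta-D-glucopyranoside at 30 uM final. Compounds titrated, 20 min at RT, red fluorescence read; AC50 from titration.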
Turning to `N#CCCn1ccc(NC(=O)c2ccc(Cl)cc2)n1`, the Potency was inactive: > 76.9 µM.

For the compound `CCOc1cc2[nH]c(=S)n(CCCC(=O)NCc3ccco3)c(=O)c2cc1OCC`, the Potency result is “inactive”.

For `CCOC(=O)C(NC(=O)CC(C)C)(Nc1cc(C)on1)C(F)(F)F` (centres undefined), the Potency was inactive: > 76.9 µM.

For `CC1(C)[N+]([O-])=C2C(=[N+]([O-])C1(C)C)c1ccccc1/C2=N\O`, the Potency was inactive: > 76.9 µM.

For `O=C(C1CCN(Cc2cc(Cl)ccc2O)CC1)N1CCN(Cc2ccccc2)CC1`, the Potency is inactive: > 76.9 µM.

Turning to `COc1ccccc1NC(=O)COC(=O)c1ccc(S(=O)(=O)NCc2ccco2)cc1`, the Potency result is “inactive”.

In the case of `CN(C(=O)CCN1C(=O)C(C)(C)Nc2ccccc21)c1ccccc1`, the Potency was inactive: > 76.9 µM.

With `CCOC(=O)NC1(NC2CCCCC2)Oc2ccccc2O1`, the Potency is inactive: > 76.9 µM.

Take `CCOC(=O)CSc1nnc(Cc2cc(=O)[nH]c(=O)[nH]2)n1-c1cccc(OC)c1`: the Potency was inactive: > 76.9 µM.

Regarding `CCN(CC)C(=O)Cn1cnc2c1c(=O)n(C)c(=O)n2C`, the Potency is inactive: > 76.9 µM.

Take `Cn1nc(C(=O)N2CCN(S(=O)(=O)c3ccccc3)CC2)c2ccccc2c1=O`: the Potency is inactive: > 76.9 µM.

As for `O=C1Cc2ccccc2N1c1ccccc1`, the Potency is inactive: > 76.9 µM.

Consider `O=C(Nc1ccc(SC(F)F)cc1)c1ccc2nccnc2c1`, for which the Potency is active: 12.4 µM.

Regarding `CCCCOCCCNC(=O)N[C@H](C(=O)OC)C(C)C`, the Potency was inactive: > 76.9 µM.

For `Cc1noc(NS(=O)(=O)c2ccc(NC(=O)c3ccc(Br)o3)cc2)c1C`, the Potency was inactive: > 76.9 µM.

With `O=C(CSc1nnc(-c2cccs2)n1-c1ccccc1)N1CCN(C(=O)c2ccco2)CC1`, the Potency is inactive: > 76.9 µM.

For the compound `CCCCCn1ccc(=N)cc1`, the Potency is inactive: > 76.9 µM.

For the compound `Cc1cc(-c2nc3ccccc3o2)c2ccccc2n1`, the Potency entry was “inactive”.

Regarding `Cc1csc(=NC(=O)c2ccccc2)n1Cc1ccco1`, the Potency was inactive: > 76.9 µM.

For `O=C(c1ccncc1)N1CCN(C(=O)c2ccco2)CC1`, the Potency is inactive: > 76.9 µM.

As for `CCn1c(NC(=O)c2ccco2)c(-c2ccccc2Cl)c(=O)c2ccccc21`, the Potency is inactive: > 76.9 µM.

Take `CCOC(=O)C1=C(N)n2c(s/c(=C/c3ccco3)c2=O)=C(C(=O)OC)C1c1ccco1` (centres undefined): the Potency is inactive: > 76.9 µM.

As for `CN(C)C(=O)CSc1nnc2sc3ccccc3n12`, the Potency was inactive: > 76.9 µM.

As to `COc1ccc(S(=O)(=O)NC(CC(=O)NCc2ccccc2OC)c2ccco2)cc1` (centres undefined), the Potency was inactive: > 76.9 µM.

As to `O=C(NCC1CCCO1)c1cc(-c2ccco2)nc2ccccc12` (centres undefined), the Potency is inactive: > 76.9 µM.

For `O=C(Cn1cccc1C(=O)c1ccccc1)NCCN1CCCCCC1`, the Potency was inactive: > 76.9 µM.

For the compound `COc1ccc(-c2cc3ccccc3n2CC(O)CN2CCOCC2)cc1` (centres undefined), the Potency result was “inactive”.

For `O=C(CSc1nnc(SCC(=O)c2ccco2)s1)c1ccco1`, the Potency is inactive: > 76.9 µM.

For `CS(=O)(=O)N(CC(=O)N1CCN(Cc2ccc3c(c2)OCO3)CC1)c1ccc2c(c1)OCO2`, the Potency was inactive: > 76.9 µM.

Consider `COc1ccc(CCn2nnnc2C(c2ccc(Cl)cc2)N2CCN(C)CC2)cc1OC` (centres undefined), for which the Potency is inactive: > 76.9 µM.

In the case of `CC(=O)Nc1cccc(-c2nc3ccccc3c(=O)o2)c1`, the Potency was inactive: > 76.9 µM.

Turning to `CN(C)CC(=O)Nc1cc(C(F)(F)F)ccc1Cl`, the Potency was inactive: > 76.9 µM.

As to `CCOc1ccc(CCNC(=O)c2cccnc2N2CCCC2)cc1OCC`, the Potency was inactive: > 76.9 µM.

On to `CCCC(=O)Nc1ccccc1-c1nnn(CC(=O)Nc2ccc(OCC)cc2)n1`, for which the Potency is inactive: > 76.9 µM.

Consider `CC(C)CC(NC(=O)C1CCC(C)CC1)C(=O)Nc1cccnc1` (centres undefined), for which the Potency is inactive: > 76.9 µM.

`C=CCC(C#Cc1ccccc1)N(C)C` (centres undefined): the Potency was inactive: > 76.9 µM.

Consider `COc1cccc(CN(C(=O)c2cc3ccccc3oc2=O)C2CC2)c1`, for which the Potency is inactive: > 76.9 µM.

With `Cc1cccc(-c2nnc(SCC#N)n2-c2cccc(Cl)c2)c1`, the Potency was inactive: > 76.9 µM.

As for `c1coc(-c2nnc(NC3=NCCC3)o2)c1`, the Potency was inactive: > 76.9 µM.

Turning to `COC(=O)c1cc(CSc2nnc(-c3ccccc3)c(-c3ccccc3)n2)oc1C`, the Potency was inactive: > 76.9 µM.

With `Cc1nc(=O)c(-c2ccccc2)c(C)n1-c1ccccc1O`, the Potency is inactive: > 76.9 µM.

As to `COc1ccccc1CNC(=O)C1CCN(Cc2nc(-c3cccc(Cl)c3)oc2C)CC1`, the Potency result is “inactive”.

Take `COc1ccc(NC(=O)Cn2nnc(C(N)=O)c2N)c(OC)c1`: the Potency was inactive: > 76.9 µM.

In the case of `CC(C)CN(C(=O)COC(=O)c1cc2ccccc2oc1=O)C1CCS(=O)(=O)C1` (centres undefined), the Potency was inactive: > 76.9 µM.

Take `COc1ccc(C)cc1-n1c(-c2ccncc2)n[nH]c1=S`: the Potency was inactive: > 76.9 µM.

Take `CCCNC(=O)Nc1cc(C)on1`: the Potency was inactive: > 76.9 µM.

For `Cn1c(SCC(=O)Nc2nc3c(s2)CCCC3)nnc1-c1ccccc1`, the Potency was inactive: > 76.9 µM.

`O=C(NCc1ccc(F)cc1)C1CCN(S(=O)(=O)N2CCC3(CC2)OCCO3)CC1`: the Potency was inactive: > 76.9 µM.

Consider `COc1ccc(S(=O)(=O)c2ccc(OC)c(OC)c2)cc1OC`, for which the Potency was inactive: > 76.9 µM.

`CSc1nc(C)cc(OCC#N)n1`: the Potency is inactive: > 76.9 µM.

On to `COCC(=O)N(CCc1ccc(OC)c(OC)c1)Cc1nc2ccccc2c(=O)[nH]1`, for which the Potency is inactive: > 76.9 µM.

On to `CCCc1cc(=O)n2[nH]c(-c3cc(OC)c(OC)c(OC)c3)nc2n1`, for which the Potency was inactive: > 76.9 µM.

Regarding `O=C(CSc1nnc(Cc2ccccc2)o1)NCCN1C(=O)CSC1=O`, the Potency is inactive: > 76.9 µM.

Turning to `O=C(NCc1ccc2c(c1)OCO2)c1nn(-c2ccccc2)c(=O)c2ccccc12`, the Potency is inactive: > 76.9 µM.

Take `CCOc1ncccc1C(=O)OCc1cc(=O)oc2c(C)c(C)ccc12`: the Potency was inactive: > 76.9 µM.

Take `COc1cc(OC)cc(C(=O)NC2CC3CCC(C2)N3Cc2ccco2)c1` (centres undefined): the Potency is inactive: > 76.9 µM.

`Cc1noc(C)c1COC(=O)c1ccc2c(c1)S(=O)(=O)c1ccccc1C2=O`: the Potency was inactive: > 76.9 µM.

For `Cc1ccccc1-n1c(=O)cc(N2CCC3(CC2)OCCO3)[nH]c1=O`, the Potency is inactive: > 76.9 µM.

As to `Cn1c(Cn2nnc3ccccc32)nnc1SCC(=O)Nc1ccc2c(c1)OCO2`, the Potency was inactive: > 76.9 µM.
